# Assay results from the supplement of paper PMC11417369.
# The list shows a part of the results.
# Test system: PfAP2-HC AP2 domain (GST-tagged)
# Experiment: gcPBM binding intensity (ln(normalized median fluorescence intensity)); higher = stronger DNA binding
# In short: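 DNA-binding domains from P. falciparum, fused to GST and produced in E. coli, were put on an Agilent 4 × 180k double-stranded probe array for 1 h in 1× PBS holding 1% milk, 0.2 mg/ml BSA, 0.5% salmon testes DNA and 0.03% Triton X-100. Probes were primer-extended, 36 bp long and drawn from intergenic genomic regions, with negative controls included. After Alexa488 anti-GST antibody detection and a 488 nm scan, binding intensity was set as the highest Masliner-normalised natural-log median intensity across replicate spots of either probe orientation.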
row,Sequence,gcPBM binding intensity (ln)
1,TCTTTTTAGATATATACACACCGTGTCTACCTATAC [CACACA_site7551],10.3
2,ATAATATAAATACAAACACACAATTGTGTCCACATT [CACACA_site6920],10.3
3,ATCATATTTATGTTGGTGCATTATGCATGGATTTTA [GTGCAC_site9795],9.6
4,TTTTTAAATATAAACAAAAAAAAAAAATATATCAAT [XGTACX_negctrl_site328],9.43
5,ATTTTTATTTTTATTTGTACTTATATATTCTTAAGC [XGTACX_site4122],9.83
6,TAAAAAAATTTAACATGTACAAATATTGAAAAGGAC [XGTACX_site7608],9.87
7,ATTAAAAAAGAATATACACACCAAAACTGTTTGTTA [CACACA_site4687],9.68
8,TACAATTCGTAATACACACACATATATATATATATT [CACACA_site3751],9.97
9,GAAGAATAAATATGCACACATGCATATATTTTTACA [CACACA_site3459],9.69
10,ATATATTTTTACCATACACACATATAACAAATATAT [CACACA_site7706],9.8
11,TTTATTATCTTATTCACACACATATATATATATATA [CACACA_site2869],10.1
12,AGAAAAAAAAAAAAAAAAAAAAAATTGAATATATAT [TGCATGCA_negctrl_site55],9.35
13,TGTTTTTATAATATTAGTACATAATATACATAATTC [XGTACX_site2787],9.46
14,AATAAATTAATTTTGGGTACATATATATATATATAT [XGTACX_site3807],9.91
15,AAATATATATAAATGAGTACTTATGGTAACATATAT [XGTACX_site6362],9.78
16,AGAGCATAATAAAACACACACATACATACCTATATA [CACACA_site6566],10.9
17,AAAAAATATTGAAGTACACACATTATGAACTTTTTT [CACACA_site1733],9.81
18,ATAAATAATTATAATTGTACACATATATATATATAC [XGTACX_site3998],9.72
19,TTCCACATTTTACAGACACACACAATTTATATTACG [CACACA_site8572],10.1
20,TATATATATATATATACATGCATATATATAATATAT [TGCATGCA_site763],9.45
21,GTAAGTTGTGCATTCACACACATATATATATATATA [CACACA_site3303],9.82
22,TTTTGTTTCTATATAAGATGGAAATATAAACTTGTA [CACACA_negctrl_site82],9.4

row,Sequence,gcPBM binding intensity (ln)
1,TTAAGATCCTAAAAAACACACAATTGTGAATAATAA [CACACA_site3872],9.79
2,TTATTAAAACAAAATGTACACACATATAATTTAATG [CACACA_site8193],9.67
3,TTTTTCTTTCTTTCTTTTTTAATATTACAAATGTAT [XGTACX_negctrl_site267],9.63
4,TTCAATGCATGTCCATGTACATATAAAAAAAAATAC [XGTACX_site1597],9.54
5,TGTTGGCAGGTGAATGCATGCATATAAGTCTATCTG [TGCATGCA_site781],9.52
6,CACCCTTTACACAAGGTGCATACTTTATTATATTTT [GTGCAC_site9778],9.86
7,AAAGTAGAATATCCCCTACACACCCAAATAATTTAC [CACACA_site1255],10.5
8,AATATTTTAATGCACACACACAAAAAAAAAAAAAAA [CACACA_site7374],9.84
9,AATCCTTTACGACACACACACAAAAAAAAAAAAAAA [CACACA_site6449],10.3
10,TATATATTTTATTTATGTACGAAAATAAATTAAATT [XGTACX_site3628],9.36
11,TTAAAAAAATTAATATGTACATATATTTATATATAT [XGTACX_site5317],9.54
12,TATTAAAAAGAGGTGACACACACATATAAATCTAAA [CACACA_site9243],10
13,AACCACATACCTATAACACACATATACAATATAGAT [CACACA_site7023],9.98
14,TCCACAAAGCATGTAACACACAACATATAAGACATA [CACACA_site972],9.91
15,ACATCATAGAAAAATTGATATATATATATATATATA [CACACA_negctrl_site130],9.47
16,ATAACTTATTTTTAAAGTACATTATTATATATATAT [XGTACX_site1620],9.7
17,ATTGTAATAAATTGTAGTACATGTAAGGTTTTATTT [XGTACX_site1005],10
18,AATAAAAATATATCCACACACATATATAAATATGTA [CACACA_site6415],10
19,TTAAGAATATTTTCATGTACTCATTTTTTTTGTTAT [XGTACX_site1814],9.73
20,ATTACATATGTGAGTTGTACTATAAATATATAATAT [XGTACX_site3718],9.66
21,TATTATATATATAGGTGTACGCATTTGTCCTTTATA [XGTACX_site1385],9.75
22,AAACTTATGTTTACATGTACAGAACTTTATATTATG [XGTACX_site4843],9.7

row,Sequence,gcPBM binding intensity (ln)
1,TCGAACATTAACATAACACACATATAGATTTATATA [CACACA_site7380],9.87
2,TTATTCTTTAACTAAAATTATATATATATATTATAC [CACACA_negctrl_site1597],9.67
3,TTGTATGCTTCCCGACTACATTATGCCATAAATGTA [TGCATGCA_negctrl_site136],9.54
4,TAAACATTTTTAATTTTGTAAAATTTTAAATAAAAA [XGTACX_negctrl_site612],9.27
5,TTTTTTATTGTGAAACTGATATTATATTTTTTATAA [GTGCAC_negctrl_site559],9.55
6,ACAAACAAAGAAAGAACACACATACACAAGATACCT [CACACA_site7353],10.2
7,TGAATATTTTATGATTGTACATATTATAATAAACAT [XGTACX_site6113],9.53
8,AAAACAAACATTACACGTACAAAACAAGTTATAGAC [XGTACX_site6320],10.6
9,TTTTTGATATTAAAGGGTACATTATTTACAAAAAAA [XGTACX_site5284],9.23
10,ATGCTTTTTTATAAAAGTACATAAAGTTTTTACACT [XGTACX_site7307],9.43
11,CTGCCTTCCATACCCACACACTTCCCATATATTTTA [CACACA_site5491],10.3
12,ATTCTTTTATTTAGTAGTACATTTGTATTTTATTCA [XGTACX_site5790],9.75
13,GATCCTGGTTCTTGTGGTACTTGTTCATTTGTTATA [XGTACX_site7164],9.89
14,TTATTTTCTTTTTCTTGTACACACATAATATGGATG [XGTACX_site1481],10.3
15,TTGTTAATAAAAATATTGGAAAGTTTATAAAATTTT [CACACA_negctrl_site1487],9.33
16,ATAATATATATACAAACACACAATTGCGTCCACATT [CACACA_site8515],10.2
17,AAAAAGAAGAATAATACACACAAATTATTTTATATA [CACACA_site1919],10
18,TATTCCAAAAATGTGTGTACATAAATACAATATTAT [XGTACX_site2653],9.85
19,TATAATAAATGGACGGTGCGACATGACCATATGTGT [GTGCAC_site9476],9.85
20,AATAAAAAAAAAAAAAAAAAAAAAAAGACACTAAAA [CACACA_negctrl_site1075],9.53
21,CTAAAAGAACATGTGTGTACTTATGTTCTCTTTTTT [XGTACX_site5983],9.71
22,GACACCCATAAATATACACACGCACAACACAAAATA [CACACA_site8944],9.98

row,Sequence,gcPBM binding intensity (ln)
1,TTATTTTTTAGTAGTACACACTTTTTGTACCTTTTA [CACACA_site4503],9.87
2,CTTACCAAAAAACACACACACACAAAATATATAAAT [CACACA_site1870],11.2
3,TGTAGATTTTGTAACACACACATATAAATACAGATA [CACACA_site5343],10.2
4,TAAGGGATATGTATATGTACATACAAATATATATAA [XGTACX_site2892],9.62
5,TTTGCTTCGATATATTCACACATTTTTTTTCTTATT [CACACA_site4499],9.96
6,AAATGTAATAAATATACACACACAAATATATATATA [CACACA_site8754],10.3
7,AATTTCATTTTTAGAAGTACATTTATATTAAAAATC [XGTACX_site2888],9.22
8,CATTGACCATTAATTTGTACACAAGGGGAAATGAGG [XGTACX_site1756],9.58
9,TATATATATATATATATATATATATATATATATATT [CACACA_negctrl_site1440],9.39
10,TCTTTCTGCTCTTATACACACAAATAAAGATTTTTT [CACACA_site2700],9.85
11,ATGAAATTTTCATATTGTACTATTAAAAATATATTT [XGTACX_site1989],9.41
12,AATAAATATTAAATGACAAAAAAAAAAAAAAAAGGG [XGTACX_negctrl_site15],9.92
13,TATAATCCATAAGAAGCACACACATATATATATATT [CACACA_site8394],10.4
14,TTAAGATGCATAAATACATGCAAAGTAAATAATTCT [TGCATGCA_site517],9.79
15,TTAGCAGGACGTTTGGTGCACGTACTGTTTTTCTTT [GTGCAC_site9856],9.53
16,ATTATAAGAATTAAAAGAAACAAAATTTTAATTATA [CACACA_negctrl_site610],9.49
17,TAAGATCCTTAAAACGCATGCAGTATTTTTATTTCT [TGCATGCA_site532],9.59
18,TAGCCAAAAGGATATGCACACACACCCACATATATA [CACACA_site8684],10.1
19,CATATAATTATTTTCACACATATAACTACATCTATA [CACACA_site5915],9.74
20,CTTTTACGTTTAGGATGTACATTTAAAAAAAAAGAA [XGTACX_site8032],9.43
21,ATATAAATAAAAAAAAGTACATAATATATAAAAATA [XGTACX_site3065],9.8
